The list shows a part of the results.
Tests used:
Test in all cases: glycan array binding signal (z-score within array); higher = stronger binding
Conditions in all cases: glycan notation: IUPAC condensed, linker removed
[1] = target: Fuc(a1-3)[Gal3S(b1-4)]GlcNAc
In short: (§1)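 Negative Z-scores can be read as non-binding. The Z-score is calculated within each array and then averaged across arrays of one protein sequence at different concentrations or buffers and across linkers. Arrays, 3228 in all, were curated from the Consortium for Functional Glycomics database and kept only where the protein sequence was available.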

[2] = target: Fuc(a1-3)[Gal3S(b1-4)]GlcNAc6S
In short: as §1

[3] = target: Fuc(a1-3)[GalNAc(b1-4)]GlcNAc
In short: as §1

[4] = target: Fuc(a1-3)[GalNAc(b1-4)]GlcNAc6S
In short: as §1

Fuc(a1-4)GlcNAc = target: Fuc(a1-4)GlcNAc
In short: as §1

Fuc(b1-3)GlcNAc = target: Fuc(b1-3)GlcNAc
In short: as §1

Gal(a1-2)Gal = target: Gal(a1-2)Gal
In short: as §1

Gal(a1-3)Gal = target: Gal(a1-3)Gal
In short: as §1

Gal(a1-3)Gal(b1-3)GlcNAc = target: Gal(a1-3)Gal(b1-3)GlcNAc
In short: as §1

[5] = target: Gal(a1-3)Gal(b1-3)GlcNAc(b1-2)Man
In short: as §1

[6] = target: Gal(a1-3)Gal(b1-3)GlcNAc(b1-2)Man(a1-3)[Gal(a1-3)Gal(b1-3)GlcNAc(b1-2)Man(a1-6)]Man(b1-4)GlcNAc(b1-4)GlcNAc
In short: as §1

[7] = target: Gal(a1-3)Gal(b1-3)GlcNAc(b1-3)GalNAc
In short: as §1

[8] = target: Gal(a1-3)Gal(b1-3)GlcNAc(b1-6)GalNAc
In short: as §1

[9] = target: Gal(a1-3)Gal(b1-3)[Fuc(a1-4)]GlcNAc(b1-2)Man(a1-3)[Gal(a1-3)Gal(b1-3)[Fuc(a1-4)]GlcNAc(b1-2)Man(a1-6)]Man(b1-4)GlcNAc(b1-4)GlcNAc
In short: as §1

Gal(a1-3)Gal(b1-4)Glc = target: Gal(a1-3)Gal(b1-4)Glc
In short: as §1

Gal(a1-3)Gal(b1-4)GlcNAc = target: Gal(a1-3)Gal(b1-4)GlcNAc
In short: as §1

[10] = target: Gal(a1-3)Gal(b1-4)GlcNAc(b1-2)Man
In short: as §1

[11] = target: Gal(a1-3)Gal(b1-4)GlcNAc(b1-2)Man(a1-3)[Gal(a1-3)Gal(b1-4)GlcNAc(b1-2)Man(a1-6)]Man(b1-4)GlcNAc(b1-4)GlcNAc
In short: as §1

[12] = target: Gal(a1-3)Gal(b1-4)GlcNAc(b1-3)GalNAc
In short: as §1

[13] = target: Gal(a1-3)Gal(b1-4)GlcNAc(b1-6)GalNAc
In short: as §1

[14] = target: Gal(a1-3)Gal(b1-4)[Fuc(a1-3)]GlcNAc
In short: as §1

[15] = target: Gal(a1-3)Gal(b1-4)[Fuc(a1-3)]GlcNAc(b1-2)Man(a1-3)[Gal(a1-3)Gal(b1-4)[Fuc(a1-3)]GlcNAc(b1-2)Man(a1-6)]Man(b1-4)GlcNAc(b1-4)GlcNAc
In short: as §1

Gal(a1-3)GalNAc = target: Gal(a1-3)GalNAc
In short: as §1

[16] = target: Gal(a1-3)[Gal(a1-4)]Gal(b1-4)GlcNAc
In short: as §1

[17] = target: Gal(a1-4)Gal(b1-3)GlcNAc(b1-2)Man(a1-3)[Gal(a1-4)Gal(b1-3)GlcNAc(b1-2)Man(a1-6)]Man(b1-4)GlcNAc(b1-4)GlcNAc
In short: as §1

Gal(a1-4)Gal(b1-4)Glc = target: Gal(a1-4)Gal(b1-4)Glc
In short: as §1

Gal(a1-4)Gal(b1-4)GlcNAc = target: Gal(a1-4)Gal(b1-4)GlcNAc
In short: as §1

[18] = target: Gal(a1-4)Gal(b1-4)GlcNAc(b1-2)Man(a1-3)[Gal(a1-4)Gal(b1-4)GlcNAc(b1-2)Man(a1-6)]Man(b1-4)GlcNAc(b1-4)GlcNAc
In short: as §1

[19] = target: Gal(a1-4)Gal(b1-4)GlcNAc(b1-3)Gal(b1-4)Glc
In short: as §1

Gal(a1-4)GlcNAc = target: Gal(a1-4)GlcNAc
In short: as §1

Gal(a1-6)Glc = target: Gal(a1-6)Glc
In short: as §1

Gal(b1-2)Gal = target: Gal(b1-2)Gal
In short: as §1

Gal(b1-3)Gal = target: Gal(b1-3)Gal
In short: as §1

Gal(b1-3)Gal(b1-4)GlcNAc = target: Gal(b1-3)Gal(b1-4)GlcNAc
In short: as §1

Gal(b1-3)GalNAc = target: Gal(b1-3)GalNAc
In short: as §1

[20] = target: Gal(b1-3)GalNAc(a1-3)[Fuc(a1-2)]Gal(b1-4)Glc
In short: as §1

[21] = target: Gal(b1-3)GalNAc(a1-3)[Fuc(a1-2)]Gal(b1-4)GlcNAc
In short: as §1

Gal(b1-3)GalNAc(b1-3)Gal = target: Gal(b1-3)GalNAc(b1-3)Gal
In short: as §1

[22] = target: Gal(b1-3)GalNAc(b1-3)Gal(a1-4)Gal(b1-4)Glc
In short: as §1

[23] = target: Gal(b1-3)GalNAc(b1-4)Gal(b1-4)Glc
In short: as §1

[24] = target: Gal(b1-3)GalNAc(b1-4)[Neu5Ac(a2-3)]Gal(b1-4)Glc
In short: as §1

Gal(b1-3)GlcNAc = target: Gal(b1-3)GlcNAc
In short: as §1

[25] = target: Gal(b1-3)GlcNAc(a1-3)Gal(b1-4)GlcNAc
In short: as §1

[26] = target: Gal(b1-3)GlcNAc(a1-6)Gal(b1-4)GlcNAc
In short: as §1

Gal(b1-3)GlcNAc(b1-2)Man = target: Gal(b1-3)GlcNAc(b1-2)Man
In short: as §1

B1: SSR2 (Sclerotium rolfsii) (protein)
chain: MVYKITVRVYQTNPDAFFHPVEKTVWKYANGGTWSITDDQHVLTMGGSGTSGTLRFHADNGESFTATFGVHNYKRWCDIVTNLAADETGMVINQQYYSQKNREEARERQLSNYQVKNAKGRNFQIVYTEAEGNDLHANLIIG
[1]
  glycan array binding signal (z-score): -0.276
[2]
  glycan array binding signal (z-score): -0.279
[3]
  glycan array binding signal (z-score): -0.282
[4]
  glycan array binding signal (z-score): -0.294
Fuc(a1-4)GlcNAc
  glycan array binding signal (z-score): -0.281
Fuc(b1-3)GlcNAc
  glycan array binding signal (z-score): -0.269
Gal(a1-2)Gal
  glycan array binding signal (z-score): -0.28
Gal(a1-3)Gal
  glycan array binding signal (z-score): -0.283
Gal(a1-3)Gal(b1-3)GlcNAc
  glycan array binding signal (z-score): -0.27
[5]
  glycan array binding signal (z-score): -0.288
[6]
  glycan array binding signal (z-score): -0.262
[7]
  glycan array binding signal (z-score): -0.287
[8]
  glycan array binding signal (z-score): -0.29
[9]
  glycan array binding signal (z-score): -0.267
Gal(a1-3)Gal(b1-4)Glc
  glycan array binding signal (z-score): -0.291
Gal(a1-3)Gal(b1-4)GlcNAc
  glycan array binding signal (z-score): -0.292
[10]
  glycan array binding signal (z-score): -0.26
[11]
  glycan array binding signal (z-score): -0.269
[12]
  glycan array binding signal (z-score): -0.286
[13]
  glycan array binding signal (z-score): -0.281
[14]
  glycan array binding signal (z-score): -0.267
[15]
  glycan array binding signal (z-score): -0.235
Gal(a1-3)GalNAc
  glycan array binding signal (z-score): -0.276
[16]
  glycan array binding signal (z-score): -0.299
[17]
  glycan array binding signal (z-score): -0.296
Gal(a1-4)Gal(b1-4)Glc
  glycan array binding signal (z-score): -0.29
Gal(a1-4)Gal(b1-4)GlcNAc
  glycan array binding signal (z-score): -0.271
[18]
  glycan array binding signal (z-score): -0.3
[19]
  glycan array binding signal (z-score): -0.285
Gal(a1-4)GlcNAc
  glycan array binding signal (z-score): -0.28
Gal(a1-6)Glc
  glycan array binding signal (z-score): -0.281
Gal(b1-2)Gal
  glycan array binding signal (z-score): -0.253
Gal(b1-3)Gal
  glycan array binding signal (z-score): -0.283
Gal(b1-3)Gal(b1-4)GlcNAc
  glycan array binding signal (z-score): -0.282
Gal(b1-3)GalNAc
  glycan array binding signal (z-score): 1.48
[20]
  glycan array binding signal (z-score): 3.93
[21]
  glycan array binding signal (z-score): 2.96
Gal(b1-3)GalNAc(b1-3)Gal
  glycan array binding signal (z-score): -0.275
[22]
  glycan array binding signal (z-score): -0.284
[23]
  glycan array binding signal (z-score): -0.292
[24]
  glycan array binding signal (z-score): -0.295
Gal(b1-3)GlcNAc
  glycan array binding signal (z-score): -0.273
[25]
  glycan array binding signal (z-score): -0.278
[26]
  glycan array binding signal (z-score): -0.287
Gal(b1-3)GlcNAc(b1-2)Man
  glycan array binding signal (z-score): -0.285
